System: 14-3-3σ
Assay: Covalent labeling of 14-3-3σ by peptides, intact protein LC/MS
Type: binding, human
Conditions: 2 µM 14-3-3σ, 10 mM MgCl2
Method: The LC/MS runs for 14-3-3σ were performed on a Waters ACQUITY UPLC class H instrument, in positive ion mode using electrospray ionization. […] The column was held at 40 °C and the autosampler at 10 °C. […] The run flow was 0.4 mL/min. […] The MS data were collected on a Waters SQD2 detector with an m/z range of 2–3071.98 at a range of 900–1900 m/z. The desolvation temperature was 500 °C with a flow rate of 800 L/h. The voltages used were 1.00 kV for the capillary and 24 V for the cone. MassLynx version 4.2 was used to operate the LCMS and analyze the data. Raw data were processed using openLYNX and deconvoluted using MaxEnt with a range of 28,000: 34,000 Da and a resolution of 1 Da/channel. […] For analysis, 24 μl sample was mixed with 6 μl of 2.4% formic acid in water and then 10 μl were injected to intact protein LCMS.

Ac-RAH-(pT)-(mC)-PASLQ-NH2 [Peptide 8, Methacrylate phosphopeptide derived from YAP-1 (PDB 3MHR)]
labeling of 14-3-3σ (5 µM peptide, 48 h, room temperature, HEPES 25 mM pH 7.5, 100 mM NaCl): 90%
covalent labeling of 14-3-3σ at the expected adduct mass (200 µM peptide, overnight, 4 °C, 25 mM HEPES pH 7.5, 100 mM NaCl, intact protein LC/MS): 35%
